# The list shows a part of the results. The list includes weakly bound sequences.
# Biological target: T1, MBP-FoxP3dN (UniProt Q99JB6)
# T1 sequence: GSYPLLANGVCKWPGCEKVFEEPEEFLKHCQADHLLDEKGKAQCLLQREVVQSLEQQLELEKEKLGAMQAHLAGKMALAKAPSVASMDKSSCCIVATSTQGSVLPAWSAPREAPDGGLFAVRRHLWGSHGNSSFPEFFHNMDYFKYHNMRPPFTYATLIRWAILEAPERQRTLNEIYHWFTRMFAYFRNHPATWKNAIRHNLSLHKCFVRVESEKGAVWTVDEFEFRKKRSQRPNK
# Assay: PD-seq (MBP pull-down with sequencing)
# Conditions: 20 mM Tris-HCl pH 7.5, 100 mM NaCl, 1.5 mM MgCl2, 0.4 uM protein, 0.1 uM dsDNA library, 30 min, room temperature, amylose pull-down; high values mean tight binding; double strand, one strand shown
row,Sequence,binding signal (RPM ratio (pull-down/input))
1,GATGATTGTTCTCCCAGCTGATGAATTCGCTTCATCGAGTAAACAAATTTTCCTAATCTTTCTGTTCAAGCGCCATCTAC,0.501
2,GATGATTGTTCTCCCAGCTGATGAATTAGGGTTATCGAGTAAACAAATTTTCCTAATCTTTCTGTTCAAGCGCCATCTAC,0.973
3,GATGATTGTTCTCCCAGCTGATGAATTAGCGGGATCGAGTAAACAAATTTTCCTAATCTTTCTGTTCAAGCGCCATCTAC,0.308
4,GATGATTGTTCTCCCAGCTGATGAATTAGAACTCTCGAGTAAACAAATTTTCCTAATCTTTCTGTTCAAGCGCCATCTAC,0.38
5,GATGATTGTTCTCCCAGCTGATGAATTAGAACTTTCGAGTAAACAAATTTTCCTAATCTTTCTGTTCAAGCGCCATCTAC,0.321
6,GATGATTGTTCTCCCAGCTGATGAATTGTAAAGTTCGAGTAAACAAATTTTCCTAATCTTTCTGTTCAAGCGCCATCTAC,0.279
7,GATGATTGTTCTCCCAGCTGATGAATTCATGTCGTCGAGTAAACAAATTTTCCTAATCTTTCTGTTCAAGCGCCATCTAC,0.863
8,GATGATTGTTCTCCCAGCTGATGAATTGCCCCGATCGAGTAAACAAATTTTCCTAATCTTTCTGTTCAAGCGCCATCTAC,0.331
9,GATGATTGTTCTCCCAGCTGATGAATTTTCGGTATCGAGTAAACAAATTTTCCTAATCTTTCTGTTCAAGCGCCATCTAC,0.454
10,GATGATTGTTCTCCCAGCTGATGAATTTATTCGGTCGAGTAAACAAATTTTCCTAATCTTTCTGTTCAAGCGCCATCTAC,0.745
11,GATGATTGTTCTCCCAGCTGATGAATTGGTGACATCGAGTAAACAAATTTTCCTAATCTTTCTGTTCAAGCGCCATCTAC,0.812
12,GATGATTGTTCTCCCAGCTGATGAATTGATCAGTTCGAGTAAACAAATTTTCCTAATCTTTCTGTTCAAGCGCCATCTAC,0.331
13,GATGATTGTTCTCCCAGCTGATGAATTATGATGTTCGAGTAAACAAATTTTCCTAATCTTTCTGTTCAAGCGCCATCTAC,3.29
14,GATGATTGTTCTCCCAGCTGATGAATTAGTGCTTTCGAGTAAACAAATTTTCCTAATCTTTCTGTTCAAGCGCCATCTAC,1.23
15,GATGATTGTTCTCCCAGCTGATGAATTGAGATGCTCGAGTAAACAAATTTTCCTAATCTTTCTGTTCAAGCGCCATCTAC,0.752
16,GATGATTGTTCTCCCAGCTGATGAATTATGATAATCGAGTAAACAAATTTTCCTAATCTTTCTGTTCAAGCGCCATCTAC,0.653
17,GATGATTGTTCTCCCAGCTGATGAATTGTGTTATTCGAGTAAACAAATTTTCCTAATCTTTCTGTTCAAGCGCCATCTAC,7.88
18,GATGATTGTTCTCCCAGCTGATGAATTGATAACATCGAGTAAACAAATTTTCCTAATCTTTCTGTTCAAGCGCCATCTAC,1.32
19,GATGATTGTTCTCCCAGCTGATGAATTTGTTAGGTCGAGTAAACAAATTTTCCTAATCTTTCTGTTCAAGCGCCATCTAC,5.73
20,GATGATTGTTCTCCCAGCTGATGAATTAGACGCCTCGAGTAAACAAATTTTCCTAATCTTTCTGTTCAAGCGCCATCTAC,0.663
21,GATGATTGTTCTCCCAGCTGATGAATTCGGCTATTCGAGTAAACAAATTTTCCTAATCTTTCTGTTCAAGCGCCATCTAC,1.91

row,Sequence,binding signal (RPM ratio (pull-down/input))
1,GATGATTGTTCTCCCAGCTGATGAATTGGAGTCGTCGAGTAAACAAATTTTCCTAATCTTTCTGTTCAAGCGCCATCTAC,0.445
2,GATGATTGTTCTCCCAGCTGATGAATTGGGGGTATCGAGTAAACAAATTTTCCTAATCTTTCTGTTCAAGCGCCATCTAC,0.977
3,GATGATTGTTCTCCCAGCTGATGAATTACCTAAGTCGAGTAAACAAATTTTCCTAATCTTTCTGTTCAAGCGCCATCTAC,0.236
4,GATGATTGTTCTCCCAGCTGATGAATTGATACAATCGAGTAAACAAATTTTCCTAATCTTTCTGTTCAAGCGCCATCTAC,2.15
5,GATGATTGTTCTCCCAGCTGATGAATTGATATCTTCGAGTAAACAAATTTTCCTAATCTTTCTGTTCAAGCGCCATCTAC,0.704
6,GATGATTGTTCTCCCAGCTGATGAATTCCAGCGGTCGAGTAAACAAATTTTCCTAATCTTTCTGTTCAAGCGCCATCTAC,0.313
7,GATGATTGTTCTCCCAGCTGATGAATTAAATAACTCGAGTAAACAAATTTTCCTAATCTTTCTGTTCAAGCGCCATCTAC,0.498
8,GATGATTGTTCTCCCAGCTGATGAATTTTGGGGATCGAGTAAACAAATTTTCCTAATCTTTCTGTTCAAGCGCCATCTAC,0.345
9,GATGATTGTTCTCCCAGCTGATGAATTTTATCGTTCGAGTAAACAAATTTTCCTAATCTTTCTGTTCAAGCGCCATCTAC,1.38
10,GATGATTGTTCTCCCAGCTGATGAATTTAGCACCTCGAGTAAACAAATTTTCCTAATCTTTCTGTTCAAGCGCCATCTAC,1.49
11,GATGATTGTTCTCCCAGCTGATGAATTCGGCTTTTCGAGTAAACAAATTTTCCTAATCTTTCTGTTCAAGCGCCATCTAC,2.77
12,GATGATTGTTCTCCCAGCTGATGAATTAGTAAAGTCGAGTAAACAAATTTTCCTAATCTTTCTGTTCAAGCGCCATCTAC,0.28
13,GATGATTGTTCTCCCAGCTGATGAATTAGGCAATTCGAGTAAACAAATTTTCCTAATCTTTCTGTTCAAGCGCCATCTAC,3.75
14,GATGATTGTTCTCCCAGCTGATGAATTAACGCACTCGAGTAAACAAATTTTCCTAATCTTTCTGTTCAAGCGCCATCTAC,0.836
15,GATGATTGTTCTCCCAGCTGATGAATTCAGTTTTTCGAGTAAACAAATTTTCCTAATCTTTCTGTTCAAGCGCCATCTAC,1.85
16,GATGATTGTTCTCCCAGCTGATGAATTCACTAGCTCGAGTAAACAAATTTTCCTAATCTTTCTGTTCAAGCGCCATCTAC,0.321
17,GATGATTGTTCTCCCAGCTGATGAATTGTCGTGATCGAGTAAACAAATTTTCCTAATCTTTCTGTTCAAGCGCCATCTAC,0.572
18,GATGATTGTTCTCCCAGCTGATGAATTTCTGCGGTCGAGTAAACAAATTTTCCTAATCTTTCTGTTCAAGCGCCATCTAC,0.261
19,GATGATTGTTCTCCCAGCTGATGAATTGGTCGTTTCGAGTAAACAAATTTTCCTAATCTTTCTGTTCAAGCGCCATCTAC,0.83
20,GATGATTGTTCTCCCAGCTGATGAATTTTAACGCTCGAGTAAACAAATTTTCCTAATCTTTCTGTTCAAGCGCCATCTAC,0.391
21,GATGATTGTTCTCCCAGCTGATGAATTTCAGCAATCGAGTAAACAAATTTTCCTAATCTTTCTGTTCAAGCGCCATCTAC,1.94

row,Sequence,binding signal (RPM ratio (pull-down/input))
1,GATGATTGTTCTCCCAGCTGATGAATTTGACTCTTCGAGTAAACAAATTTTCCTAATCTTTCTGTTCAAGCGCCATCTAC,0.551
2,GATGATTGTTCTCCCAGCTGATGAATTTAGTCGCTCGAGTAAACAAATTTTCCTAATCTTTCTGTTCAAGCGCCATCTAC,0.513
3,GATGATTGTTCTCCCAGCTGATGAATTTTGCATCTCGAGTAAACAAATTTTCCTAATCTTTCTGTTCAAGCGCCATCTAC,7.18
4,GATGATTGTTCTCCCAGCTGATGAATTAAGGTTATCGAGTAAACAAATTTTCCTAATCTTTCTGTTCAAGCGCCATCTAC,0.726
5,GATGATTGTTCTCCCAGCTGATGAATTCCGCGCATCGAGTAAACAAATTTTCCTAATCTTTCTGTTCAAGCGCCATCTAC,1.39
6,GATGATTGTTCTCCCAGCTGATGAATTAAATAAATCGAGTAAACAAATTTTCCTAATCTTTCTGTTCAAGCGCCATCTAC,0.375
7,GATGATTGTTCTCCCAGCTGATGAATTGGTAATATCGAGTAAACAAATTTTCCTAATCTTTCTGTTCAAGCGCCATCTAC,0.681
8,GATGATTGTTCTCCCAGCTGATGAATTGACCTGTTCGAGTAAACAAATTTTCCTAATCTTTCTGTTCAAGCGCCATCTAC,0.348
9,GATGATTGTTCTCCCAGCTGATGAATTACCCGACTCGAGTAAACAAATTTTCCTAATCTTTCTGTTCAAGCGCCATCTAC,0.247
10,GATGATTGTTCTCCCAGCTGATGAATTCAGACGTTCGAGTAAACAAATTTTCCTAATCTTTCTGTTCAAGCGCCATCTAC,0.336
11,GATGATTGTTCTCCCAGCTGATGAATTTTAGCTCTCGAGTAAACAAATTTTCCTAATCTTTCTGTTCAAGCGCCATCTAC,0.335
12,GATGATTGTTCTCCCAGCTGATGAATTTGCGACATCGAGTAAACAAATTTTCCTAATCTTTCTGTTCAAGCGCCATCTAC,1.3
13,GATGATTGTTCTCCCAGCTGATGAATTGGATGAGTCGAGTAAACAAATTTTCCTAATCTTTCTGTTCAAGCGCCATCTAC,0.415
14,GATGATTGTTCTCCCAGCTGATGAATTAACGTAATCGAGTAAACAAATTTTCCTAATCTTTCTGTTCAAGCGCCATCTAC,0.586
15,GATGATTGTTCTCCCAGCTGATGAATTACGACGTTCGAGTAAACAAATTTTCCTAATCTTTCTGTTCAAGCGCCATCTAC,0.637
16,GATGATTGTTCTCCCAGCTGATGAATTGTCTCTGTCGAGTAAACAAATTTTCCTAATCTTTCTGTTCAAGCGCCATCTAC,0.348
17,GATGATTGTTCTCCCAGCTGATGAATTGTCTGTATCGAGTAAACAAATTTTCCTAATCTTTCTGTTCAAGCGCCATCTAC,0.624
18,GATGATTGTTCTCCCAGCTGATGAATTGACACGATCGAGTAAACAAATTTTCCTAATCTTTCTGTTCAAGCGCCATCTAC,0.397
19,GATGATTGTTCTCCCAGCTGATGAATTGGTGTGATCGAGTAAACAAATTTTCCTAATCTTTCTGTTCAAGCGCCATCTAC,0.897
20,GATGATTGTTCTCCCAGCTGATGAATTACTGGTTTCGAGTAAACAAATTTTCCTAATCTTTCTGTTCAAGCGCCATCTAC,0.492
21,GATGATTGTTCTCCCAGCTGATGAATTAATGGGCTCGAGTAAACAAATTTTCCTAATCTTTCTGTTCAAGCGCCATCTAC,0.419

# — paper PMC12820563
